The values below come from PMC9911399, “Two distinct binding modes provide the RNA-binding protein RbFox with extraordinary sequence specificity”.

Changes are numbered by the printed parent chain; changes in the protein carry UniProt numbers. This is one part of the list.

First the molecules themselves.
B1: AGUAGAU (DNA:RNA)
RNA: GGGAGACCGGAAUUCAGAUUGUCCAGUAGAUUUAAAUCCCGUCGUAGCCACCA
DNA 1: CAATCTGAATTCCGGTCTCCC
DNA 2: TGGTGGCTACGACGGGATT
B2: GGCAGGG (DNA:RNA)
RNA: B1 RNA with A25G, U27C, A30G, U31G
DNA 1: CAATCTGAATTCCGGTCTCCC
DNA 2: TGGTGGCTACGACGGGATT
B3: AUUCUCA (DNA:RNA)
RNA: B1 RNA with G26U, A28C, G29U, A30C, U31A
DNA 1: CAATCTGAATTCCGGTCTCCC
DNA 2: TGGTGGCTACGACGGGATT
B4: AAGUGCG (DNA:RNA)
RNA: B1 RNA with G26A, U27G, A28U, A30C, U31G
DNA 1: CAATCTGAATTCCGGTCTCCC
DNA 2: TGGTGGCTACGACGGGATT
B5: ACCAGCC (DNA:RNA)
RNA: B1 RNA with G26C, U27C, A30C, U31C
DNA 1: CAATCTGAATTCCGGTCTCCC
DNA 2: TGGTGGCTACGACGGGATT
B6: CGAGUAC (DNA:RNA)
RNA: B1 RNA with A25C, U27A, A28G, G29U, U31C
DNA 1: CAATCTGAATTCCGGTCTCCC
DNA 2: TGGTGGCTACGACGGGATT
B7: CAGAUAC (DNA:RNA)
RNA: B1 RNA with A25C, G26A, U27G, G29U, U31C
DNA 1: CAATCTGAATTCCGGTCTCCC
DNA 2: TGGTGGCTACGACGGGATT
B8: UCUGCAU (DNA:RNA)
RNA: B1 RNA with A25U, G26C, A28G, G29C
DNA 1: CAATCTGAATTCCGGTCTCCC
DNA 2: TGGTGGCTACGACGGGATT
B9: GGGUAUU (DNA:RNA)
RNA: B1 RNA with A25G, U27G, A28U, G29A, A30U
DNA 1: CAATCTGAATTCCGGTCTCCC
DNA 2: TGGTGGCTACGACGGGATT
B10: GACAUAG (DNA:RNA)
RNA: B1 RNA with A25G, G26A, U27C, G29U, U31G
DNA 1: CAATCTGAATTCCGGTCTCCC
DNA 2: TGGTGGCTACGACGGGATT
B11: GAUAGGG (DNA:RNA)
RNA: B1 RNA with A25G, G26A, A30G, U31G
DNA 1: CAATCTGAATTCCGGTCTCCC
DNA 2: TGGTGGCTACGACGGGATT
B12: UUGCACC (DNA:RNA)
RNA: GGGAGACCGGAAUUCAGAUUGUCCUUGCACCUUAAAUCCCGUCGUAGCCACCA
DNA 1: CAATCTGAATTCCGGTCTCCC
DNA 2: TGGTGGCTACGACGGGATT
B13: AGCGAGC (DNA:RNA)
RNA: B1 RNA with U27C, A28G, G29A, A30G, U31C
DNA 1: CAATCTGAATTCCGGTCTCCC
DNA 2: TGGTGGCTACGACGGGATT
B14: CCAUUGG (DNA:RNA)
RNA: GGGAGACCGGAAUUCAGAUUGUCCCCAUUGGUUAAAUCCCGUCGUAGCCACCA
DNA 1: CAATCTGAATTCCGGTCTCCC
DNA 2: TGGTGGCTACGACGGGATT
B15: GUGAAUA (DNA:RNA)
RNA: B12 RNA with U25G, C28A, C30U, C31A
DNA 1: CAATCTGAATTCCGGTCTCCC
DNA 2: TGGTGGCTACGACGGGATT
B16: GUACCGG (DNA:RNA)
RNA: B14 RNA with C25G, C26U, U28C, U29C
DNA 1: CAATCTGAATTCCGGTCTCCC
DNA 2: TGGTGGCTACGACGGGATT
B17: GACUCCA (DNA:RNA)
RNA: B14 RNA with C25G, C26A, A27C, U29C, G30C, G31A
DNA 1: CAATCTGAATTCCGGTCTCCC
DNA 2: TGGTGGCTACGACGGGATT
B18: UCGUGCG (DNA:RNA)
RNA: B14 RNA with C25U, A27G, U29G, G30C
DNA 1: CAATCTGAATTCCGGTCTCCC
DNA 2: TGGTGGCTACGACGGGATT
B19: AGCUUUA (DNA:RNA)
RNA: B1 RNA with U27C, A28U, G29U, A30U, U31A
DNA 1: CAATCTGAATTCCGGTCTCCC
DNA 2: TGGTGGCTACGACGGGATT
B20: UCCCAAG (DNA:RNA)
RNA: B12 RNA with U26C, G27C, C30A, C31G
DNA 1: CAATCTGAATTCCGGTCTCCC
DNA 2: TGGTGGCTACGACGGGATT
B21: AGCAGGG (DNA:RNA)
RNA: B1 RNA with U27C, A30G, U31G
DNA 1: CAATCTGAATTCCGGTCTCCC
DNA 2: TGGTGGCTACGACGGGATT
B22: CAUUGUU (DNA:RNA)
RNA: B1 RNA with A25C, G26A, A28U, A30U
DNA 1: CAATCTGAATTCCGGTCTCCC
DNA 2: TGGTGGCTACGACGGGATT
B23: CAGCACG (DNA:RNA)
RNA: B12 RNA with U25C, U26A, C31G
DNA 1: CAATCTGAATTCCGGTCTCCC
DNA 2: TGGTGGCTACGACGGGATT
B24: GAUUGAA (DNA:RNA)
RNA: B1 RNA with A25G, G26A, A28U, U31A
DNA 1: CAATCTGAATTCCGGTCTCCC
DNA 2: TGGTGGCTACGACGGGATT
B25: CUCACUC (DNA:RNA)
RNA: B12 RNA with U25C, G27C, C28A, A29C, C30U
DNA 1: CAATCTGAATTCCGGTCTCCC
DNA 2: TGGTGGCTACGACGGGATT
B26: AACGUCU (DNA:RNA)
RNA: B1 RNA with G26A, U27C, A28G, G29U, A30C
DNA 1: CAATCTGAATTCCGGTCTCCC
DNA 2: TGGTGGCTACGACGGGATT
B27: AAGAUGG (DNA:RNA)
RNA: B14 RNA with C25A, C26A, A27G, U28A
DNA 1: CAATCTGAATTCCGGTCTCCC
DNA 2: TGGTGGCTACGACGGGATT
B28: GUGUAUU (DNA:RNA)
RNA: B12 RNA with U25G, C28U, C30U, C31U
DNA 1: CAATCTGAATTCCGGTCTCCC
DNA 2: TGGTGGCTACGACGGGATT
B29: GCCAUUA (DNA:RNA)
RNA: B14 RNA with C25G, A27C, U28A, G30U, G31A
DNA 1: CAATCTGAATTCCGGTCTCCC
DNA 2: TGGTGGCTACGACGGGATT
B30: AGGAGCU (DNA:RNA)
RNA: B1 RNA with U27G, A30C
DNA 1: CAATCTGAATTCCGGTCTCCC
DNA 2: TGGTGGCTACGACGGGATT
B31: ACGCAGG (DNA:RNA)
RNA: B14 RNA with C25A, A27G, U28C, U29A
DNA 1: CAATCTGAATTCCGGTCTCCC
DNA 2: TGGTGGCTACGACGGGATT

The target of the experiment is T1, RBFOX1 RRM RbFoxmut (Fox-RRM*) (Homo sapiens, UniProt Q9NWB1 109-208, R118D;E147R;N151S;E152T).
T1 sequence: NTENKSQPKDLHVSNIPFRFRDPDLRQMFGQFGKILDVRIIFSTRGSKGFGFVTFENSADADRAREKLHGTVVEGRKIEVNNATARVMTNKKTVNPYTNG
As to the kind of experiment: EMSA; HiTS-Eq, 1 nM pool, 10 min; buffer printed only for the single-RNA assays: 10 mM Tris pH 7.5, 150 mM NaCl, 3.4 mM EDTA, 0.001% NP-40, 30 C. Conditions: tags: His6 N-terminal (pET28a); label: 5' 32P. The essentials:
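Purified RbFox RRM (wild type or mutant) was equilibrated for 10 min in 50 µL with 1 nM of a 5′-radiolabelled pool of RNA with 7 randomized nucleotides, its flanks annealed to DNA oligonucleotides, across increasing protein concentrations. Free RNA was separated by 8% native PAGE, excised, reverse-transcribed, PCR-barcoded and sequenced on an Illumina HiSeq 2500. Relative association constants came from read-count changes of each variant against the control reaction, normalised to the cognate motif.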
In the case of B1, the binding signal is 0.128 KA relative to UGCAUGU.
With B2, the binding signal was 0.0625 KA relative to UGCAUGU.
B3: the binding signal is 0.108 KA relative to UGCAUGU.
On to B4, for which the binding signal is 0.165 KA relative to UGCAUGU.
Regarding B5, the binding signal was 0.0795 KA relative to UGCAUGU.
Turning to B6, the binding signal was 0.0919 KA relative to UGCAUGU.
For the molecule B7, the binding signal was 0.101 KA relative to UGCAUGU.
With B8, the binding signal was 0.119 KA relative to UGCAUGU.
With B9, the binding signal is 0.105 KA relative to UGCAUGU.
For B10, the binding signal is 0.0929 KA relative to UGCAUGU.
Consider B11, for which the binding signal is 0.0622 KA relative to UGCAUGU.
Regarding B12, the binding signal is 0.181 KA relative to UGCAUGU.
Take B13: the binding signal was 0.0799 KA relative to UGCAUGU.
Regarding B14, the binding signal was 0.0979 KA relative to UGCAUGU.
Next, B15: 0.191 KA relative to UGCAUGU.
B16: the binding signal was 0.0779 KA relative to UGCAUGU.
In the case of B17, the binding signal is 0.0973 KA relative to UGCAUGU.
As to B18, the binding signal is 0.147 KA relative to UGCAUGU.
For B19, the binding signal was 0.103 KA relative to UGCAUGU.
Regarding B20, the binding signal was 0.098 KA relative to UGCAUGU.
For the molecule B21, the binding signal was 0.0897 KA relative to UGCAUGU.
B22: the binding signal was 0.106 KA relative to UGCAUGU.
Take B23: the binding signal is 0.192 KA relative to UGCAUGU.
Next, B24: 0.154 KA relative to UGCAUGU; B25: 0.0504 KA relative to UGCAUGU; B26: 0.0416 KA relative to UGCAUGU.
Turning to B27, the binding signal is 0.0985 KA relative to UGCAUGU.
Turning to B28, the binding signal is 0.141 KA relative to UGCAUGU.
The result for B29 reads 0.0922 KA relative to UGCAUGU.
For B30, the binding signal is 0.108 KA relative to UGCAUGU.
With B31, the binding signal was 0.115 KA relative to UGCAUGU.
